# Experimental data as given in the supplement of paper PMC7826260.
# The list shows a part of the results. Viral Rep nickase domains cut single-stranded DNA in vitro (3 µM enzyme, 1 h, 37 °C); shown is the middle of each 90-letter strand. The score is log2 (uncut reads / reads without enzyme); uncut sequences lie near 0, cut ones below; no hit call is given. The scaling is to total reads; values above 0 arise when much of the pool is cut.
# System: T1, Rep nickase domain of wheat dwarf virus
# T1 sequence (protein, residues 1-137, tag omitted): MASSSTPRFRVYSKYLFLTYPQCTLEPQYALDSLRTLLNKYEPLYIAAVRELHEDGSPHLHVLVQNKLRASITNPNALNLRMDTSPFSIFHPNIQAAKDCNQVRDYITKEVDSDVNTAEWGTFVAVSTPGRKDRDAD
# Experiment: uncleaved DNA left, log2 of reads against the no-enzyme library (log2 ratio); higher = less cleavage (more negative = more Rep cleavage of the k-mer); sequences stand for … in CTCGTCCG…ACCGGAGA
# Experimental: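 A pool of 90-nt single-stranded DNAs with seven random bases just before the constant AC of the nick site (name = the seven bases) was cut by 3 µM recombinant His6-SUMO-tagged Rep nickase domain (300 nM DNA, 50 mM HEPES pH 8.0, 50 mM NaCl, 1 mM MnCl2, 1 h, 37 °C, three replicates). Uncut DNA was amplified and sequenced.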
row,Sequence,uncleaved DNA left (log2)
1,AAAGTCC,0.107
2,AAGGTAG,0.0414
3,ACAGATA,-0.00584
4,ATCCTCT,-0.101
5,CCCGCTC,-0.0154
6,GAAAACC,-0.0261
7,ATTCGAG,0.0844
8,TCCCGTC,-0.0701
9,GGATGTG,-0.00177
10,ATAGCTC,-0.142
11,GGCTAGT,0.0763
12,ATAGGGT,0.0584
13,TTCAGTG,-0.159
14,GTACTGG,0.102
15,CAAAGTA,-0.127
16,CAATGGG,-0.229
17,ATGAAAG,-0.0645
18,ATAATGT,0.00135
19,GTGACGT,0.125
20,CTACAAA,0.07

row,Sequence,uncleaved DNA left (log2)
1,CCATCGA,0.0272
2,TACGGAC,-0.00988
3,TGATCCA,-0.0787
4,GCCTGAC,-0.0222
5,TGATCCG,-0.165
6,TATAGTA,-0.15
7,GTGGAGT,0.173
8,CACTGAG,0.0724
9,GGGTCTC,0.153
10,ATCAGCA,0.00889
11,CCTTTTA,-0.127
12,CAGGCAT,0.137
13,GCATTGG,-0.0539
14,TTTGTAG,-0.119
15,ACGCACG,0.0577
16,ATATGGT,-0.0333
17,ATACACG,-0.159
18,TCTGGTG,-0.155
19,CCTGAGG,0.114
20,CCGCACG,0.0199
